Experimental data reported in patent publication US20040091973A1, “Process for selecting anti-angiognesis antibody fragments, anti-angiogenesis antibody fragments thus obtained and their use” (published 2004).

Target: recombinant domain ED-B of Fibronectin (Homo sapiens (Human), UniProt P02751)
Experiment: surface plasmon resonance, BIAcore, monomer fraction of the scFv
Protocol: The kinetic coefficients concerning association and dissociation of antibody fragments are determined by plasma surface resonance with BIAcore 1000 (Pharmacia) following known protocols. Few clones which were positive to the ELISA test are chosen for the measurements. The measurements are carried out with the monomer fraction of antibody fragments scFvs as described in relevant documents, using chips covered both with ED-B and with 7B89.

B1: monoclonal scFv antibody ME-4C (scFv)
scFv: [about 100 residues not written out]QKSAPFDYWGQGTLVTVSRGGGGSGGGGSGGGGSSELTQDPAVSVALGQTVRITCQGDSLRSYYASWYQQKPGQAPVLVIYGKNNRPSGIPDRFSGSSSGNTASLTITGAQAEDEADYYCNSSAPVSNRVVFGGGTKLTVLG
koff: 0.006 s⁻¹
kon: 60000 M⁻¹ s⁻¹
